In all, about 110,000 compounds were measured (“z-score”: median about -0.1, highest 2% from about 2 on). The list shows a part of the results. The source made the active and inactive calls.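 The calls were made as follows: active = z-score in the third read window above 3 or below -3; inactive = the rest.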

This assay has as its target Metabotropic glutamate receptor 8 (Rattus norvegicus) (UniProt P70579). In words: rat mGluR8 modulators via GIRK flux, primary screen, cell-based, thallium flux, HTS (AID 488969). The conditions noted are these: HEK293 rat mGluR8, GIRK (G protein-gated inwardly rectifying potassium channel) thallium flux, FluoZin2; at 10 µM; stronger effect = higher value; submaximal glutamate (EC20) added with thallium.
UniProt P70579, sequence (P70579 whole entry, looked up): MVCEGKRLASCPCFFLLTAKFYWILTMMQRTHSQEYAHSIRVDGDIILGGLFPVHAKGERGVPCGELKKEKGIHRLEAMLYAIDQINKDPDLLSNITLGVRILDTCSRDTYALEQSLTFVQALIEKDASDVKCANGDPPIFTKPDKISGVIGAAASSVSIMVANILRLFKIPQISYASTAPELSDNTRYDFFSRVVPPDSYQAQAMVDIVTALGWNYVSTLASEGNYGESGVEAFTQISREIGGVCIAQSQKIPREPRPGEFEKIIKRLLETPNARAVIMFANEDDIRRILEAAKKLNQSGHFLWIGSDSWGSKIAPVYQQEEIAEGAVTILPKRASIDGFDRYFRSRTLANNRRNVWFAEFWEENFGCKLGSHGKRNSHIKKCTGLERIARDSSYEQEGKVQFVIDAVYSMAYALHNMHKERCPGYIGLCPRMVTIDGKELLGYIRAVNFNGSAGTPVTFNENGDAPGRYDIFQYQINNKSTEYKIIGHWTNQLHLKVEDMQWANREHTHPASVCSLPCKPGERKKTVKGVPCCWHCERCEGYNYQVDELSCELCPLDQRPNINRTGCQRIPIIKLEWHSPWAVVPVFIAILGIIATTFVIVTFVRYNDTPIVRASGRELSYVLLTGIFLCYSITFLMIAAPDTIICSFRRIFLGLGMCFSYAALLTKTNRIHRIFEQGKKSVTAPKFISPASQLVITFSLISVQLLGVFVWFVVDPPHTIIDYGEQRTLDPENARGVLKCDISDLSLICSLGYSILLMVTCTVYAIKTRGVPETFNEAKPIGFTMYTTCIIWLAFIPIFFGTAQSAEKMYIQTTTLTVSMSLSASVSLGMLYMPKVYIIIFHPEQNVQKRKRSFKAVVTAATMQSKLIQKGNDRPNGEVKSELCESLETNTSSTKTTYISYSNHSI
For the compound `COC(=O)C1=C(C)NC2=C(C(=O)CC(C)(C)C2)C1c1cn(Cc2ccc(Br)cc2)nc1-c1ccccc1` (stereo not given), the z-score was -0.348.

Turning to `Cc1[nH]c2ccccc2c1[C@H]1[C@@H](CC#N)C1(C)C`, the z-score is -0.661.

The compound `CC(C)CNC(=O)c1cc2nc(C3CC3)cc(C(F)(F)F)n2n1` registered a z-score of -0.256.

With `CCOc1ccc(C(=O)Nc2ccccc2N2CCOCC2)cc1`, the z-score is 0.836.

With `CCc1nc2c(c(=O)c3ccccc3n2C)c(=O)n1CCc1ccc(OC)cc1`, the z-score turned out to be 0.183.

Regarding `CC(=O)Nc1ccc2c3c(cccc13)CC2`, the z-score was -0.196.

As to `Cc1nc(NC(=O)COc2ccccc2)sc1C(=O)Nc1cccc(Cl)c1`, the z-score was determined as 0.144.

`CCOc1ccccc1NC(=O)c1ccc(S(=O)(=O)N(C)C)cc1` displayed a z-score of -0.0734.

`CCOc1ccc2[nH]c(C)c(CN3CCOCC3)c(=O)c2c1` displayed a z-score of -0.182.

Consider `C=CCn1c(SCC(=O)Nc2cccc3ccccc23)nnc1-c1cnccn1`, for which the z-score is -0.29.

As to `COc1ccc(C(C)n2c(C)c3c(C)nnc(C)c3c2C)cc1` (stereo not given), the z-score was -0.0365.

`O=C(NCCOc1ccc(F)cc1)c1ccccc1SCc1ccccc1` showed a z-score of -0.227.

`O=C(Cn1nc(C(F)(F)F)c2c1CCCCC2)N1CCOCC1`: the z-score is -0.228.

As to `Cc1oc2cc(O)cc(C)c2c(=O)c1-c1cnn(-c2ccccc2)c1`, the z-score was -0.0979.

Regarding `COCc1nnc(NC(=O)c2cc(Cl)ccc2OC)s1`, the z-score is 0.193.

Compound `O=C(Nc1ccccc1Sc1ccccc1)c1ccccc1` gave a z-score of -0.698.

Turning to `CC(C)Cc1nnc(NC(=O)c2ccc([N+](=O)[O-])cc2)s1`, the z-score was -0.151.

`Cc1nnc(SCc2ccccc2F)n1NCc1cccs1`: the z-score came out at 0.288.

As for `Cc1ccc2c(c1)sc1ncc(NC(=O)c3ccccc3)c(=O)n12`, the z-score worked out at 0.0611.

In turn, `Cc1ccc(S(=O)(=O)N/N=C\c2cn(-c3ccccc3)nc2-c2ccccc2)cc1` displayed a z-score of 0.107.

On to `CC1(C)CC(=O)C2=C(C1)N(CC1CCCO1)C(=O)NC2(C(F)(F)F)C(F)(F)F` (stereo not given), for which the z-score turned out to be 1.25.

In turn, `O=c1[nH]c2ccc(Br)cc2c(-c2ccccc2)c1CN1CCOCC1` gave a z-score of -0.651.

Consider `O=C(Nc1nc2ccccc2s1)C1=NN(c2ccccc2)C(=O)CC1`, for which the z-score was determined as 0.914.

Compound `Cc1cccc(C)c1OCc1nnc(NC(=O)CSc2ccc(Cl)cc2)s1` showed a z-score of 0.123.

`COc1ccccc1NC(=O)CN(C)S(=O)(=O)c1cc(C)ccc1OC` had a z-score of -0.253.

`Cc1cc(NS(=O)(=O)c2ccc(NC(=O)c3cc(-c4cccnc4)nc4ccc(Cl)cc34)cc2)no1` displayed a z-score of -0.139.

`CC(C)CNC(=O)C(=O)Nc1ccc(N(C)C)cc1` returned a z-score of -0.148.

With `CCN(CC)S(=O)(=O)c1cccc(-c2n[nH]c(=S)n2/N=C/c2ccc(C(=O)OC)cc2)c1`, the z-score is active: 3.19.

For the compound `CC(C)NC(=O)C1CCCN(S(C)(=O)=O)C1` (stereo not given), the z-score is -0.047.

In turn, `O=C(Nc1ccc(-c2cn3ccsc3n2)cc1)C1CCCC1` registered a z-score of 0.166.

Values taken from PubChem BioAssay AID488969 (Vanderbilt High Throughput Screening Facility, 2010).
